PubChem BioAssay AID463173 (ICCB-Longwood Screening Facility, Harvard Medical School, 2010)
Hit rate of the full screen: of about 52,000 compounds, about 4,300 (8.3%) were called active. Cut-off read from the data, not from the text of the source: active = survival mostly below about 52% (no sharp cut-off); inactive = mostly above about 56%. Some of the results follow.

These compounds were tested on DeltatarO mutant (assay: growth inhibition of S. aureus wild type versus tarO mutant, primary screen, teichoic acid synthesis inhibitors, RN4220, OD600 (AID 463173)). Details: OD600, 18 h, active compounds read low, screened at 18.75 µg/mL (by protocol).
`O=C(NCCc1ccc(Cl)cc1)c1cccn1-c1nnc(N2CCCCC2)s1` was tested, and the survival was inactive: 98%.
`Cc1cccc(NC(=O)CSc2nc3c(c(=O)[nH]2)CN(Cc2ccc4c(c2)OCO4)CC3)c1C` was tested, and the survival was inactive: 78%.
For `O=C(Nc1nc2n(n1)C(c1ccc(F)cc1)C=C(c1ccc(Cl)cc1)N2)c1ccco1` (stereo unspecified), the survival was active: 16%.
For `CCOC(=O)c1ccc(N2C(=O)c3n[nH]c(-c4cccs4)c3C2c2ccc(O)c(OC)c2)cc1` (stereo unspecified), the survival was inactive: 72%.
In the case of `CCN(C(=O)CCS(=O)(=O)c1cccc2nsnc12)c1cccc(C)c1`, the survival is reported as inactive: 74%.
For `CCN(C(=O)c1cc2c(s1)-c1c(C)cccc1OC2)c1cc(C)ccc1C`, the survival was active: -1%.
With `O=C(NCC12CC3CC(CC(C3)C1)C2)c1cc2nc(-c3ccc(Cl)cc3)cc(C(F)(F)F)n2n1` the survival was active: 31%.
For `COc1ccc(CCNC(=O)Cc2c(C)c3cc(OC)c(OC)cc3oc2=O)cc1`, the survival was inactive: 50%.
In the case of `CCN(CC)CC(=O)c1c[nH]c2ccccc12`, the survival is reported as inactive: 105%.
`Cc1cccc(C)c1OCC(=O)Nc1nonc1-c1ccc(Br)cc1` was tested, and the survival was active: 41%.
`Cc1ccc(C(=O)Nc2ccc(-n3c(C)nc4ccccc4c3=O)cc2)cc1[N+](=O)[O-]` was tested, and the survival was inactive: 117%.
With `COc1ccc(NC(=O)C2CCN(C(=O)c3sc4nc[nH]c(=O)c4c3C)CC2)c(OC)c1` the survival was inactive: 91%.
`CC(=O)OCc1cnc(C)c2oc(=O)c(C(=O)Nc3ccc(F)cc3C)cc12` was tested, and the survival was inactive: 122%.
`Cc1cccc(N2CCN(c3nc4ccccc4c4nc(-c5ccccc5)nn34)CC2)c1C` was tested, and the survival was inactive: 92%.
In the case of `CCc1ccccc1N1CC(c2nnc(NC(=O)c3ccco3)s2)CC1=O` (stereo unspecified), the survival is reported as inactive: 85%.
In the case of `CCN(CC)S(=O)(=O)c1ccc2c(c1)N(CC(=O)N1CCN(c3cc(Cl)ccc3C)CC1)C(=O)CO2`, the survival is reported as inactive: 71%.
`CCOc1ccc(CNC(=O)C2CCN(C3=NS(=O)(=O)C(c4ccc(C)cc4)=C3CC)CC2)cc1` was tested, and the survival was inactive: 72%.
For `COc1cc(NC(=O)c2cc(-c3ccccc3O)no2)cc(OC)c1OC`, the survival was inactive: 67%.
In the case of `CC(=O)Nc1nonc1-c1nnc(SCC(=O)Nc2ccccc2Cl)n1C`, the survival is reported as inactive: 50%.
For `Clc1cccc(-c2nnc(CN3CCN(c4ccccn4)CC3)o2)c1`, the survival was inactive: 82%.
In the case of `COC(=O)c1c(SCC(=O)Nc2cccc(C(F)(F)F)c2)[nH]c2ccccc2c1=O`, the survival is reported as inactive: 82%.
In the case of `COc1ccc(NC(=O)C(CC(C)C)NC(=O)C2CCCCC2)c(OC)c1` (stereo unspecified), the survival is reported as inactive: 71%.
For `Cc1cc(S(=O)(=O)Nc2cc3c(cc2N2CCOCC2)n(C)c(=O)n3C)ccc1F`, the survival was inactive: 80%.
For `COc1ccc(-n2c(=O)c3ccccc3n(Cc3ccc(F)cc3Cl)c2=O)cc1OC`, the survival was inactive: 103%.
For `COCCNc1c(-c2ccc(N)cc2)nc2ccc(C)cn12`, the survival was inactive: 65%.
`COc1ccc(N2CCN(CCCNC(=O)Nc3ccccc3Cl)CC2)cc1` was tested, and the survival was inactive: 81%.
With `COc1ccc(CCNC(=O)CN(c2ccc(C)cc2)S(=O)(=O)c2ccc(OC)cc2)cc1` the survival was inactive: 67%.
With `CCOc1ccc(-c2nc3c(c(SCC(=O)N4CCCCC4)n2)Cc2cc(C)ccc2O3)cc1` the survival was inactive: 88%.
With `COC(=O)CN(Cc1ccccc1)S(=O)(=O)c1ccc2c(c1)OCCO2` the survival was inactive: 97%.
For `CCOc1ccc(CN2C(=O)c3ccccc3Sc3ccc(C(=O)N4CCN(C)CC4)cc32)cc1`, the survival was inactive: 85%.
`CCC(CC)C(=O)Nc1c(C(=O)N2CCN(c3ccccc3F)CC2)oc2ccccc12` was tested, and the survival was inactive: 100%.
In the case of `CCC(Sc1nc2cc(OC)c(OC)cc2c(=O)n1Cc1ccc(Cl)cc1)C(=O)NCCOC` (stereo unspecified), the survival is reported as inactive: 91%.
`COc1ccc(OC)c(NC(=O)CSC2=Nc3ccccc3C3=NC(CCC(=O)NCc4ccco4)C(=O)N23)c1` (stereo unspecified) was tested, and the survival was inactive: 78%.
With `O=S1(=O)c2ccccc2N(Cc2ccc(Cl)cc2F)c2ccccc21` the survival was inactive: 84%.
For `CN(C)S(=O)(=O)c1ccc2c(c1)c(=O)c(C(=O)N1CCN(c3cccc(Cl)c3)CC1)cn2C`, the survival was inactive: 95%.
In the case of `CCOC(=O)c1ccc(NC(=O)CN(c2ccc(C)cc2)S(=O)(=O)c2ccc(OC)cc2)cc1`, the survival is reported as inactive: 127%.
With `CCC(=O)Nc1nnc(S(=O)(=O)N(C)Cc2ccc(Cl)cc2)s1` the survival was inactive: 94%.
In the case of `CCOc1ccccc1NC(=O)CSC1=Nc2ccccc2C2=NC(CC(=O)NC3CCCCC3)C(=O)N12` (stereo unspecified), the survival is reported as inactive: 70%.
`COc1ccc(OC)c(NC(=O)CSc2n[nH]c(-c3ccccc3Cl)n2)c1` was tested, and the survival was inactive: 96%.
In the case of `c1ccc(-c2cn(-c3ccccc3)c3ncnc(N4CCN(c5ccccc5)CC4)c23)cc1`, the survival is reported as inactive: 90%.
In the case of `CC(N=C1NC(C)(C)Cc2ccccc21)C(=O)O` (stereo unspecified), the survival is reported as inactive: 99%.
With `CC(C)OC(=O)c1cc2c(ccn2C)n1CC(=O)N(Cc1ccccc1)c1ccccc1` the survival was inactive: 58%.
`CCOC(=O)CC(NC(=O)c1cc2cc(Cl)ccc2oc1=O)c1ccc(C)cc1` (stereo unspecified) was tested, and the survival was inactive: 144%.
In the case of `COc1ccccc1N1CCN(c2ccc3cc(S(=O)(=O)N4CCCCC4)ccc3n2)CC1`, the survival is reported as inactive: 76%.
With `Cc1cc(C)cc(Oc2c(C(F)(F)F)oc3c(CN4CCCC(C)C4)c(O)ccc3c2=O)c1` (stereo unspecified) the survival was inactive: 76%.
With `CCOc1ccc(-n2nc(CO)c(C(=O)NCc3ccc(Cl)cc3)n2)cc1` the survival was active: 43%.
`CC(OC(=O)c1nsc(Cl)c1Cl)C(=O)NCc1cccs1` (stereo unspecified) was tested, and the survival was inactive: 107%.
For `COc1ccc(Br)c2c1-c1nc(NC(=O)c3cccc(C)c3)sc1C2`, the survival was inactive: 44%.
With `CC1CCN(C(=O)CSc2c3c(nc4cc(Cl)ccc24)CCCC3)CC1` the survival was active: 5%.
With `Cc1ccc(-c2nnc(SCCOc3ccccc3)o2)cc1` the survival was inactive: 106%.
`Brc1ccc(-c2ccc(CNCCSc3nnnn3-c3ccccc3)o2)cc1` was tested, and the survival was inactive: 67%.
For `CCn1nnnc1SCC(N)=O`, the survival was inactive: 99%.
With `O=C(NC1CC(=O)N(c2ccccc2)C1)c1ccc(S(=O)(=O)N2CCOCC2)cc1` (stereo unspecified) the survival was inactive: 55%.
`O=C(Nc1ccc(S(=O)(=O)N2CCC(c3nc4ccccc4s3)CC2)cc1)c1ccc(F)cc1` was tested, and the survival was inactive: 63%.
For `Nc1no[n+]([O-])c1C(=O)NCCO`, the survival was inactive: 65%.
For `Cc1cc(C)c(S(=O)(=O)NCCc2cc3c(C)ccc(C)c3[nH]c2=O)c(C)c1`, the survival was inactive: 80%.
With `CCCC(=O)NCCc1nc2ccccc2n1Cc1c(F)cccc1Cl` the survival was inactive: 69%.
With `Cc1ccc(C)c(-n2nnc(-c3nc(-c4ccc(Cl)cc4)no3)c2N)c1` the survival was inactive: 88%.
For `COc1ccc(F)cc1S(=O)(=O)NCCc1csc(-c2ccc(Cl)cc2)n1`, the survival was inactive: 89%.
For `CCOc1ccc(-c2cn(-c3ccc(OC)cc3)c(SCC(=O)Nc3ccccc3Cl)n2)cc1`, the survival was inactive: 99%.
In the case of `CCc1ccc(NC(=O)C2CCN(c3nnc(-n4c(C)ccc4C)s3)CC2)cc1`, the survival is reported as inactive: 79%.
In the case of `CC(=O)c1ccc(NC(=O)CSc2cn(CC(=O)N3CCCCC3)c3ccccc23)cc1`, the survival is reported as inactive: 63%.
For `CC(C)(CN)C(O)C(=O)O` (stereo unspecified), the survival was inactive: 82%.
In the case of `CCC(=O)Nc1sc2c(c1C(=O)Nc1ccc(OC)cc1)CCC(C(C)(C)C)C2` (stereo unspecified), the survival is reported as active: 13%.
`CCN(C(=O)c1nn(-c2ccc(OC)c(Cl)c2)c(=O)c2c1c1ccccc1n2C)c1cc(OC)ccc1OC` was tested, and the survival was inactive: 82%.
For `Cc1ccc(NC(=O)c2cccc(NC(=O)N3CCSc4ncccc43)c2)cc1Cl`, the survival was inactive: 88%.
`COc1ccc(N2CCN(C(=O)Cn3ncc4c3-c3cc(C)ccc3OC4)CC2)cc1` was tested, and the survival was inactive: 122%.
`COc1ccc(-c2nc3sc(CCNC(=O)C(=O)Nc4cc(C)cc(C)c4)c(C)n3n2)cc1` was tested, and the survival was inactive: 97%.
With `COc1cc(OC)cc(C(=O)Nc2cc(-c3nc4ccccc4s3)ccc2OC)c1` the survival was active: 42%.
With `Cc1ccc(C(=O)NCC(c2cccs2)S(=O)(=O)c2cccs2)cc1C` (stereo unspecified) the survival was inactive: 78%.
For `CCOc1ccc(NC(=O)CN(C)S(=O)(=O)c2ccc3c(c2)c(=O)n(C)c(=O)n3C)cc1`, the survival was inactive: 89%.
`COc1ccc(NC(=O)c2sc3nc(C)c(C(=O)Nc4ccc(C)cc4C)c(-c4ccc(Cl)cc4)c3c2N)cc1` was tested, and the survival was inactive: 55%.
For `O=C(NCc1ccc2c(c1)CCN2C(=O)c1ccncc1)c1cccc(Cl)c1`, the survival was inactive: 75%.
In the case of `COc1ccc(OC)c(NC(=O)CSC2=Nc3ccccc3C3=NC(CC(=O)NCc4ccco4)C(=O)N23)c1` (stereo unspecified), the survival is reported as inactive: 99%.
In the case of `CC1C(=O)NN=C1C(=O)N/N=C\c1cccnc1` (stereo unspecified), the survival is reported as inactive: 87%.
For `N#Cc1ccc(C(=O)Nc2ccc(Cl)c(-c3nc4cc(Cl)ccc4o3)c2)c(F)c1`, the survival was active: 28%.
`Cc1oc(-c2ccccc2F)nc1CS(=O)(=O)CC(=O)N1CCN(c2cccc(C(F)(F)F)c2)CC1` was tested, and the survival was inactive: 78%.
In the case of `COc1ccccc1-c1noc(-c2ccc(NCCc3ccccc3)c([N+](=O)[O-])c2)n1`, the survival is reported as active: 37%.
For `CCS(=O)(=O)c1ncc(Cl)c(C(=O)N(Cc2ccccc2)Cc2ccco2)n1`, the survival was inactive: 52%.
For `O=S1(=O)CCC(c2ccccc2)C1` (stereo unspecified), the survival was inactive: 77%.
With `COc1cccc(CNC(=O)CSc2ncc(S(=O)(=O)c3ccc(C)c(Cl)c3)c(=O)[nH]2)c1` the survival was inactive: 69%.
`CCn1cc(C(=O)NCCc2ccc(OC)c(OC)c2)c(=O)c2cc(S(=O)(=O)N3CCc4ccccc4C3)ccc21` was tested, and the survival was inactive: 78%.
With `COc1ccc(-c2nc(CN3CCC(C(=O)NCCN(CC(C)C)CC(C)C)CC3)c(C)o2)cc1OC` the survival was inactive: 128%.
In the case of `COc1ccccc1C(=O)Nc1ccccc1-c1nnn(CC(=O)N2CCN(c3ccc(F)cc3)CC2)n1`, the survival is reported as inactive: 83%.
With `CC(C)(C)C(=O)OCc1cc(=O)n2nc(C3CCCCC3)sc2n1` the survival was inactive: 80%.
With `Cc1ccc(C)c(CN2C(=O)c3ccccc3Sc3ccc(C(=O)NC4CCCC4)cc32)c1` the survival was inactive: 128%.
